# Values joined by “and” are separate entries in the source; they are usually repeats but may differ in a detail not shown here. Identical values can stand only once. Hit rate of the full screen: of about 48,000 compounds, about 1,200 (2.5%) were called active. Inconclusive results (about 2%) are left out.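 The calls were made as follows: active = activation of at least 60% and not above a set upper limit (about 1 call in 100 departs from these limits); inconclusive = activation of 40% to 60%, or above that upper limit; inactive = activation under 40%.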 This is one part of the list.
# Target: Probable G-protein coupled receptor 32 (Homo sapiens) (UniProt O75388)
# Assay: qHTS for Agonists of Human Resolvin D1 Receptor DRV1; also: 0% is about no effect
# Settings: CHO-K1 GPR32 beta-arrestin PathHunter luminescence, 90 min; at 76.9 µM; active compounds read high; zero percent set by DMSO-only wells
# Method in brief: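 CHO-K1 cells stably expressing ProLink-tagged GPR32 and Enzyme Activator-tagged beta-arrestin were seeded at 2,500 cells/well overnight, exposed to compounds for 90 min at 37 °C, then read by beta-Gal complementation chemiluminescence after 1 h detection reagent.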
# UniProt O75388, sequence (O75388 whole entry, looked up): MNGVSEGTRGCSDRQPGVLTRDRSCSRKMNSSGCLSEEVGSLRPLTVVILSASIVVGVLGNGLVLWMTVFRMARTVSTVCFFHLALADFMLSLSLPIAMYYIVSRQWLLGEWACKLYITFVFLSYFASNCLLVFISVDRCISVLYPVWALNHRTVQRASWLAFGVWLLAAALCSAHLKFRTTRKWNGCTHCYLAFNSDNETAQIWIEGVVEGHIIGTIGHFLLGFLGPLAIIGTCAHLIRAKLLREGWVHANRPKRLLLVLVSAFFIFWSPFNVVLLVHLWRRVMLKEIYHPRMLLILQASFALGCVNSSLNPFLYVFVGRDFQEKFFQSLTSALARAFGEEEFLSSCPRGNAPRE
row,SMILES,activation
1,Cc1ccc(-c2c3c(=O)n(C)c(=O)n(C)c3c3c(C(F)(F)F)nc4ccccc4n23)cc1,inactive: -1.39%
2,CCOC(=O)c1[nH]c(C)c(CCC(=O)Nc2ccc(N(CC)CC)cc2C)c1C,inactive: -8.31%
3,CCS(=O)(=O)N1CC(=O)N(c2cccc(C)c2C)C(C)(C(=O)NC2CCCCC2)C1 (stereo unspecified),inactive: 6.99%
4,CCc1ccc(CNC(=O)CCN2C(=O)COc3ccccc32)cc1,inactive: -10.8%
5,Cc1cc(C)cc(NC(=O)Cn2nnc(C(=O)Nc3cc(C)cc(C)c3)c2N)c1,active: 83.6%
6,Cc1nc(-c2ccc(F)cc2)sc1CCNC(=O)c1ccco1,inactive: -2.83%
7,COc1cc(NC(=O)Cn2c(C)cc3ccccc3c2=O)cc(OC)c1OC,inactive: 27.3%
8,COc1cc(OC)cc(C(=O)Nc2c(C(=O)Nc3ccc(F)cc3)oc3ccccc23)c1,inactive: 1.9%
9,CSc1ccc(CCNC(=O)C(C)n2c(C)c3cnn(-c4ccccc4)c(=O)c3c2C)cc1 (stereo unspecified),inactive: 13.5%
10,CCOC(=O)c1cc(-c2ccccc2)n(CCCC(=O)Nc2cccc(Cl)c2C)c1C,inactive: -19.4%
11,[O-][n+]1cccc(CO)c1,inactive: 8.43%
12,COC(=O)c1cc2oc(C)cc2n1CC(=O)Nc1ccc(C)cc1C,inactive: -16.4%
13,CC(=O)Nc1cc(C(=O)NCc2ccc(F)cc2Cl)ccc1Sc1ccc(Cl)cc1,inactive: -17.8%
14,O=C(Cn1c(=O)n(Cc2ccccc2)c(=O)c2oc3ccccc3c21)Nc1ccc(Cl)cc1,inactive: 0.152%
15,Cc1ccc(/C=C/c2onc(C)c2S(=O)(=O)N2CCC(C(=O)N3CCOc4ccccc43)CC2)cc1,inactive: -17.8%
16,O=C(CSc1nc2ccsc2c(=O)n1Cc1ccccc1F)NCc1ccccc1,inactive: -13.6%
17,COc1ccc(S(=O)(=O)N(C)Cc2nc(-c3cccc(C)c3)no2)cc1,inactive: 0.0825%
18,CCc1ccc(NC(=O)CN2C(=O)C(c3ccccc3)=NC23CCCCCC3)cc1,inactive: -24.6%
19,CCc1ccc(NC(=O)N(Cc2ccc(C)cc2)Cc2cccn2-c2nnc(N3CCCC3=O)s2)cc1,inactive: -20.5%
20,CCOC(=O)c1ccc(NC(=O)c2cc(=O)c3cc(CC)ccc3o2)cc1,inactive: -12.7%
21,Cc1ccc2nc(CSc3nnc(NC(=O)COc4ccccc4)s3)cc(=O)n2c1,inactive: -10.5%
22,CCOC(=O)c1c(C)c(-c2ccccc2)n(CC(=O)NCCc2ccc(C)cc2)c1C,inactive: 6.54%

row,SMILES,activation
1,CCCCc1ccc(NC(=O)COc2cccc3c(=O)n(C)ccc23)cc1,active: 60.2%
2,Cc1ccc(NC(=O)C2CCCN(c3nnc(-n4c(C)ccc4C)s3)C2)cc1Cl (stereo unspecified),inactive: -26.4%
3,COc1cccc(CNC(=O)C(NS(=O)(=O)c2ccc3nc(C)sc3c2)C(C)C)c1 (stereo unspecified),inactive: 14%
4,COc1ccc(-c2cc(C(F)(F)F)nc(SCC(=O)NCCc3ccc(OC)c(OC)c3)n2)cc1,inactive: -6.23%
5,Cc1ccc(NC(=O)N2CCC(CN3CCC(C)CC3)CC2)cc1F,inactive: 9.13%
6,Cc1cccc(NC(=O)CSc2nnc(C)c(=O)[nH]2)c1,inactive: -7.97%
7,Cc1ccc(C(CC(=O)Nc2cc(C)cc(C)c2)N2Cc3ccccc3C2=O)cc1 (stereo unspecified),inactive: 14.8%
8,CCN(CC)c1ccc(-n2nc3cc(C)c(NC(=O)c4ccccc4F)cc3n2)cc1,inactive: 8.15%
9,Cc1ccccc1CN1c2ccccc2-c2nc(SCC(=O)NCCc3ccccc3)ncc2S1(=O)=O,inactive: -3.61%
10,CCS(=O)(=O)NCC(c1ccco1)N1CCN(c2ccc(OC)cc2)CC1 (stereo unspecified),inactive: -16.1%
11,Cc1ccc(C(=O)Nc2nc3n(n2)C(c2ccccc2)C=C(c2ccccc2)N3)cc1 (stereo unspecified),inactive: 5.56%
12,Cc1ccc(NC(=O)Cn2c(C)cc(C)c(C#N)c2=O)cc1F,inactive: -7.19%
13,Cc1cc(C)c(/C=C/c2onc(C)c2S(=O)(=O)N2CCC(C(=O)N3CCN(c4ccc(Cl)cc4)CC3)CC2)c(C)c1,inactive: -2.82%
14,Cc1ccc(NC(=O)CCNS(=O)(=O)c2cccc3nsnc23)cc1,inactive: -24.8%
15,COc1ccc(-c2nc3ccccc3s2)cc1NC(=O)c1cc2ccccc2o1,inactive: -0.0462%
16,CC1CCc2onc(C(=O)N3CCN(c4cccc(C(F)(F)F)c4)CC3)c2C1 (stereo unspecified),inactive: -20.6%
17,NC(=O)OCC(COC(N)=O)c1ccccc1,inactive: -11.8% and inactive: 12.3%
18,CN(CC(=O)Nc1ccc(F)cc1F)S(=O)(=O)c1ccc(C(=O)N2CCOCC2)s1,inactive: -4.98%
19,CCOc1ccc(-c2nonc2NC(=O)c2ccc(C)cc2)cc1OCC,inactive: -4.54%
20,Cc1ccnc(NS(=O)(=O)c2ccc(N)cc2)n1,inactive: 11.2%
21,CN1CCN(C(c2cccc(Br)c2)c2sc3nc(-c4ccco4)nn3c2O)CC1 (stereo unspecified),inactive: -6.75%
22,CCC(=O)N1CCc2cc(Br)cc(S(=O)(=O)CCC(=O)NCCc3ccccc3Cl)c21,inactive: -14.1%

row,SMILES,activation
1,CCOc1ccc(-c2nc(SCC(=O)Nc3ccc4c(c3)OCCO4)c(-c3ccc(F)cc3)[nH]2)cc1,inactive: -12.5%
2,O=C(Cc1csc2ccccc12)NCc1ccccc1F,inactive: -13.1%
3,COc1ccc(NC(=O)c2noc3c2CSc2ccccc2-3)cc1Cl,inactive: -21.2%
4,Clc1ccc2nc(-c3ccc(Br)o3)c(Nc3ccc4c(c3)OCCO4)n2c1,inactive: 12.9%
5,COc1cccc(OC)c1C(=O)Nc1cccc(-c2nc3cc(C)cc(C)c3o2)c1,inactive: 0.847%
6,CC(=O)N1CCCc2cc(S(=O)(=O)N3CCN(c4ccc(F)cc4)CC3)ccc21,inactive: -9.25%
7,CCc1cccc(-n2nnc(-c3nc(-c4cccs4)no3)c2N)c1,inactive: 14.6%
8,O=C(Cn1nc(Cc2cccnc2)c2ccccc2c1=O)Nc1cccc(C(F)(F)F)c1,inactive: -12%
9,CC1CCN(S(=O)(=O)c2cccc(C(=O)N(C)C3(C)CCS(=O)(=O)C3)c2)CC1 (stereo unspecified),inactive: -12.5%
10,CC1=C(C(=O)Nc2cccnc2)C(c2ccc(F)cc2)n2nc(SCc3ccccc3)nc2N1 (stereo unspecified),inactive: -20.5%
11,CCCNC(=O)Cn1nc(C)c2c(C)n(-c3ccccc3)nc2c1=O,inactive: -3.06%
12,Cc1cccc(NC(=O)CCS(=O)(=O)c2cc(Br)cc3c2N(C(=O)C2CC2)CC3)c1C,inactive: 3.81%
13,CC(NC(=O)C1CCN(C(=O)N2CCOc3ccccc32)CC1)c1ccccc1 (stereo unspecified),inactive: -10.8%
14,COc1cc(OC)c(NC(=O)CSc2nc3ccncc3[nH]2)cc1Cl,inactive: 1.73%
15,CCCCOC(=O)CCCCCCCCC(=O)OCCCC,inactive: -11.4%
16,CCCCNC(=O)CSc1nc2ccccc2nc1Cc1ccccc1,inactive: 18.3%
17,CC(C)CCNC(=O)c1ccc(NC(=O)N2CCCCc3ccccc32)cc1,inactive: 3.76%
18,Cc1ccc(N2CC(NC(=O)C3CCCC3)CC2=O)cc1 (stereo unspecified),inactive: -5.27%
19,CCOc1ccc(Nc2c(S(=O)(=O)c3ccccc3)cnc3ccc(CC)cc23)cc1,inactive: -45.5%
20,Cc1ccc(C(=O)c2cn(CC(=O)Nc3ccc4c(c3)OCCO4)c3nc(C)ccc3c2=O)cc1,inactive: 19.7%
21,COc1cccc(N2CCN(C(=O)Cn3ncc4c3-c3ccccc3OC4)CC2)c1,inactive: 39%
22,CSc1oc(-c2ccc(F)cc2)nc1S(=O)(=O)c1ccc(Br)cc1,inactive: -7.03%

row,SMILES,activation
1,CC(C)CC(NC(=O)C1CCC(C)CC1)C(=O)OCC(=O)c1ccc(Cl)cc1 (stereo unspecified),inactive: 5.4%
2,O=C(CSc1nc2ccccc2n1Cc1ccccc1)NCc1ccccc1,inactive: -40.6%
3,CN1Cc2cc(C(=O)N3CCC(C4CCNCC4)CC3)ccc2N[C@@H](CC(=O)O)C1=O,inactive: 9.62%
4,Cc1ccc(CNC(=O)CN2C(=O)COc3ccc(S(=O)(=O)N4CCC(C)CC4)cc32)cc1,inactive: -22.3%
5,CCN1C(=O)c2ccccc2S(=O)(=O)c2ccc(C(=O)NCc3ccc(F)cc3)cc21,inactive: -36.6%
6,Nc1c(NC/C=C\COc2cc(CN3CCCCC3)ccn2)c(=O)c1=O,inactive: -13.5%
7,CC(=O)N[C@@H](CS)C(=O)O,inactive: 5.84% and inactive: -3%
8,CSc1cccc(NC(=O)c2ccc3c(c2)CCCN3S(C)(=O)=O)c1,inactive: 10.3%
9,Cc1ccc(-n2cc(C(=O)OCc3ccc(Cl)cc3)c3ccccc3c2=O)cc1,inactive: -9.14%
10,Cc1ccc(NC(=O)Cc2coc3c(C)c(C)ccc23)c(C)c1,inactive: -4.42%
11,Cc1ccc(/C=C/C(=O)Nc2ccc(Cl)cc2Cl)cc1,inactive: 12.1%
12,COc1ccc(NC(=O)c2ccc3[nH]c(C)cc(=O)c3c2)cc1,inactive: 0.626%
13,NCc1ccccc1Sc1ccccc1CO,inactive: -19.7%
14,CN1c2ccccc2-c2nc(SCC(=O)Nc3ccccc3)ncc2S1(=O)=O,inactive: -27%
15,CCN(CC)c1ccc(-c2nc(-c3ccccn3)no2)cc1[N+](=O)[O-],inactive: 10.2%
16,Cc1ccc(C)c(NC(=O)CN(Cc2ccccc2)S(=O)(=O)c2ccc3nc(C)sc3c2)c1,inactive: -24.7%
17,CCN(CCCNC(=O)c1ccc(Sc2ccc(Cl)cc2)c(NC(C)=O)c1)c1cccc(C)c1,inactive: -19.8%
18,COC(=O)C1CCN(c2csc3ccc(C)cc3c2=O)CC1,inactive: -17.3%
19,CCc1nn(CCCC(=O)NCc2ccc(OC)c(OC)c2)c(=O)c2cc3occc3n12,inactive: -11.5%
20,Cc1ccc(-n2ncc3c(NCc4ccccc4)ncnc32)cc1C,inactive: 36.6%
